Data published in ChEMBL document CHEMBL4888484, “Replenishing the malaria drug discovery pipeline: Screening and hit evaluation of the MMV Hit Generation Library 1 (HGL1) against asexual blood stage Plasmodium falciparum ,using a nano luciferase reporter read-out” (2022).
In all, about 150,000 compounds went through this assay and about 540 (0.36%) showed an effect of 50% or more. The list shows a part of the results.

tested on: Plasmodium falciparum; assay: Primary screen in NF54 nanoGlo assay, in single point, at 2uM, 72h; a lower Z score goes with more inhibition; type: functional, Erythrocyte; conditions: timepoint 72 hour

Row | Compound | % Inhibition | Z score
1 | CN(CC1CCOCC1)C(=O)Nc1cc(F)cc(F)c1 | -11% | 1.64
2 | O=S(=O)(c1ccc(Br)cc1)N1CCN(Cc2noc(-c3cccc(C(F)(F)F)c3)n2)CC1 | 0% | -0.04
3 | C[C@H]1CCCCN1C(=O)C1=CC(c2ccc3c(c2)OCO3)=NS(=O)(=O)N1C | -2% | 0.35
4 | C[C@H](CO)NC(=O)c1cccc(C=CCCCC(=O)N(C)C)c1 | -6% | 0.73
5 | COc1ccc(-c2nc(CCNC(=O)c3ccccc3Cl)n[nH]2)cc1 | -10% | 1.88
6 | CC1(C)c2ccccc2N2CC(=O)N(CC#N)[C@@]21C | 34% | -3.89
7 | Cc1oc(C)c(C(=O)Nc2cccnc2C2CC2)c1C | 10% | -1.88
8 | COc1nc(NC(=O)[C@H]2CC2(C)C)n[nH]1 | 12% | -1.19
9 | CC(=O)N1CCN(C(=O)c2nn(-c3ccc(C)c(F)c3)c(=O)n(Cc3ccc(C)cc3)c2=O)CC1 | -17% | 1.62
10 | Cc1cccc(N(CCO)CCCO)n1 | -8% | 0.85
11 | COc1ccc(Cl)cc1-n1cnc2cc(C(=O)N3CCOCC3)ccc2c1=O | -7% | 0.93
12 | Cc1c(F)cccc1NC(=O)COC[C@H]1CCCO1 | -9% | 0.89
13 | CCOC(=O)N1CCN(C(C)C(=O)N2c3ccccc3CC2C)CC1 (stereo not drawn) | -3% | 0.34
14 | Cn1nc2n(c1=O)CCN(S(=O)(=O)c1ccccc1F)CC2 | -12% | 1.58
15 | CC(=O)N1CCc2cc(S(=O)(=O)N3CCOCc4ccccc43)ccc21 | 8% | -0.78
16 | Cc1cc(O)cc(=O)n1CC(=O)N1C[C@@H](C)CN(C)c2ccccc21 | 8% | -1.55
17 | COc1cccc(CC[C@H]2CCCN(C(=O)c3c(C)nc4ncccn34)C2)c1 | -9% | 1.27
18 | COc1cc(CNC2CC2)cc(Br)c1OCc1ccc(C)cc1 | 30% | -3.37
19 | Nc1nc([C@H]2CCOC2)cc(N2CCCCCCC2)n1 | -3% | 0.53
20 | CC1CCC(NC(=O)CN[C@H](c2ccccc2)C2CC2)CC1 (stereo partly drawn) | -20% | 1.87
21 | Cn1nc2nc(NCc3ccccc3)nc(-c3cccc(Oc4ccccc4)c3)c2c1N | -11% | 1.03
22 | Cc1ccccc1-c1nc(OC(C)C)nn1-c1ccc(NC(=O)c2ccco2)cc1 | 6% | -1.02
23 | Cc1ccc(Cl)cc1-n1ncc2c(=O)n(Cc3nc(-c4ccccc4)no3)cnc21 | 2% | -0.29
24 | Cc1c(Cl)cccc1-n1ccn2c(=O)n(Cc3ccc(F)cc3)nc2c1=O | -3% | 0.42
25 | Cc1ccc(C2CCCC2N(C)c2c(C#N)c(=O)n(C)c(=O)n2C)cc1 (stereo not drawn) | -12% | 2.04
26 | Cc1noc(CCCNC(=O)NC[C@](C)(O)c2ccc(C)o2)n1 | -4% | 0.58
27 | CC(C)(C)C(=O)NCCc1ccc(OC(F)F)cc1 | -20% | 1.82

Row | Compound | % Inhibition | Z score
28 | COc1cccc(NC(=O)[C@@]2(CCO)CCN(c3ncccn3)C2)c1 | 4% | -0.73
29 | CCCOc1ccc(CN2CCOC3(CCOCC3)C2)cc1OCC | 13% | -1.6
30 | Cc1nnnn1[C@@H](C(=O)NCc1nc(C(F)(F)F)n[nH]1)c1ccccc1 | -23% | 4.49
31 | Cc1cc(NC(=O)CCN2CCN(C)C[C@@H]2C)no1 | 11% | -2.12
32 | CCc1nn(C[C@@]2(C)CC2(Cl)Cl)c(=O)c(C#N)c1CC | -2% | 0.32
33 | CC1CCCC(C)C1NC(=O)CC1CCCOC1 (stereo not drawn) | -7% | 1.13
34 | COCC(=O)NCc1cc2n(n1)CCN([C@H]1CCN(c3ccc(F)cc3)C1)C2 | -4% | 0.73
35 | CN(Cc1cncs1)Cc1ccns1 | -7% | 0.96
36 | Cc1cc(N2CC[C@](C)(O)[C@@H](O)C2)nc(N2CCOCC2)n1 | -10% | 0.96
37 | Cc1ccc(C)c(Cn2c(C)c(CNC3CCC(C)CC3)c(C(=O)O)c2C)c1 (stereo not drawn) | -13% | 2.36
38 | COc1ccc(-c2nn3c(N4CCN(C)CC4)cc(C)nc3c2C)cc1OC | -11% | 2.19
39 | O=C(O)C1C2C=CC(O2)C1C(=O)Nc1ccc2ccccc2c1 (stereo not drawn) | -30% | 3.55
40 | CCCn1nc(C(=O)N2CCO[C@@H](C)C2)ccc1=O | -7% | 1.11
41 | CCCc1cc(N2CCCC[C@H]2c2ncccn2)n2ncnc2n1 | -5% | 0.66
42 | O=C(COc1ccccc1)N1CCCN(c2ccncc2Cl)CC1 | -10% | 0.92
43 | Fc1ccc(-c2noc([C@@H]3Cc4[nH]cnc4CN3CCCc3ccccc3)n2)cc1Cl | -8% | 1.18
44 | Cc1nnsc1C(=O)Nc1nc2ccccc2[nH]1 | -10% | 1.32
45 | O=S1(=O)NCCN1c1cccc(Br)c1 | -10% | 1.29
46 | CCN(CC)c1onc(-c2ccccc2)c1CN(Cc1ccco1)C(C)=O | -1% | 0.11
47 | Cn1cnc([C@H]2CN(C(=O)NCc3cccc(Cl)c3)C[C@@H]2N)c1 | 3% | -0.57
48 | COc1cccc(-c2nc(CC(=O)OCC(=O)Nc3ccc(N4CCCCC4)cc3)cs2)c1 | 1% | -0.09
49 | CC(CCc1ccccc1)NC(=O)C(C)NS(=O)(=O)c1ccccc1F (stereo not drawn) | 18% | -3.53
50 | CS(=O)(=O)N(Cc1ccsc1)CC(F)(F)F | -33% | 5.57
51 | O=C(N[C@H]1C[C@@H]2C[C@H]1CN2C(=O)c1ccc(C(F)(F)F)s1)c1cccnc1 | 36% | -4.02
52 | O=C(Cc1ccc(-c2ccccc2)cc1)Nn1cnc2ccccc2c1=O | 4% | -0.77
53 | CS(=O)(=O)[C@H]1CCN(S(=O)(=O)CCc2ccccc2)C1 | -10% | 1.78
54 | Cc1cccc(-c2noc(Cc3ccc(-c4ccccc4)cc3)n2)c1 | -14% | 1.98
